# Values joined by “and” are separate entries in the source; they are usually repeats but may differ in a detail not shown here. Equal entries are not always repeated. The shares of active, inactive and inconclusive entries below differ from those in the screen. A call without a number means that no potency is given here. For some of these results: A potency beside an inconclusive call is a rough fit, not a confirmed value. Where a structure was tested more than once in an assay, its records may differ in their call. Active and inactive are the calls of the source. Calls follow the shape of the dose curve; as a rule, active = well fitted curve in the direction sought with a large enough effect in the repeat runs; inconclusive = weak or mixed curves; inactive = no such curve, though single readings can be large; an effect the other way counts as inactive or inconclusive.
# Tests used:
# [1] = A CellTox Green Cytotoxicity Assay to monitor cytotoxicity in HEK293 cells - 40 hour (AID 1224871); also: nearly all actives have a fitted effect of over 45% in size; also: potency is read from the fitted curve at half-maximal effect
# How it was run: (§1)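 Read-out: fluorescence of a cell-impermeant cyanine dye staining DNA of dead cells, proportional to cytotoxicity. HEK293, 600 cells/well with reagent, compound (23 nL DMSO) added after 5 h; reads at 0, 8, 16, 24, 32, 40 h.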
# [2] = qHTS RealTime-Glo MT Cell Viability Assay in HepG2 cells - 8 hour (AID 1224873); also: nearly all actives have a fitted effect of over 55% in size; also: potency is read from the fitted curve at half-maximal effect
# How it was run: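 Real-time viability: cells seeded at 600 per well together with NanoLuc and cell-permeant prosubstrate, compounds added after 5 h incubation. Luminescence tracked at 0, 8, 16, 24, 32 and 40 h of exposure.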
# [3] = qHTS RealTime-Glo MT Cell Viability Assay in HEK293 cells - 16 hour (AID 1224872); also: nearly all actives have a fitted effect of over 50% in size; also: potency is read from the fitted curve at half-maximal effect
# How it was run: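 Assay medium contained NanoLuc luciferase plus cell-permeant prosubstrate, added with HEK293 cells at 600 cells/well. After 5 h at 37 C/5% CO2 compounds were added; plates stayed at 37 C for 40 h with serial luminescence reads.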
# [4] = qHTS RealTime-Glo MT Cell Viability Assay in HEK293 cells - 40 hour (AID 1224874); details: RealTime-Glo luminescence; max response: stronger effect = lower value; also: nearly all actives have a fitted effect of over 50% in size; also: potency is read from the fitted curve at half-maximal effect
# How it was run: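 Luminescence readout at each listed time point; HEK293, 600 cells/well, RealTime-Glo MT reagent added with cells; compounds pinned (23 nL in DMSO) after 5 h at 37 C; continuous culture at 37 C.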
# [5] = A CellTox Green Cytotoxicity Assay to monitor cytotoxicity in HEK293 cells - 24 hour (AID 1224875); also: series mostly up to about 77 µM; nearly all actives have a fitted effect of over 45% in size
# How it was run: as §1
# Tags tell the direction and shape of the fitted curve.
structure (smiles),measurement,setting,value
C=CCO,Potency,[1],active: 34.7 µM
COC(=O)C(Cl)C(=O)OC,Potency,[1],inactive
CC(C)N(C(=O)SCC(Cl)=C(Cl)Cl)C(C)C,Potency,[2],inactive
O=C(Cl)c1ccccc1,Potency,[2],inactive
CCC1(c2ccccc2)C(=O)N=C(O)NC1=O (configuration not stated),Potency,[3],inactive
same,max response,[4],inactive: 9.07%
C=CC(=O)OCCCCO,Potency,[3],inactive
same,Potency,[2],"inconclusive: 19.5 µM [falling, partial curve, poor fit]"
OCCCCO,Potency,[3],inactive
same,max response,[4],inactive: 2.32% and inactive: 1.82%
O=S(=O)(O)O,Potency,[3],inactive
same,Potency,[4],"inconclusive: 12.3 µM [rising, partial curve]"
CCC(CC)Nc1c([N+](=O)[O-])cc(C)c(C)c1[N+](=O)[O-],Potency,[3],"inconclusive: 55.7 µM [cytotoxic, single point]"
same,Potency,[4],"inconclusive: 55.7 µM [cytotoxic, partial curve, poor fit]"
CCOC(=O)CCN(SN(C)C(=O)Oc1cccc2c1OC(C)(C)C2)C(C)C,Potency,[2],inactive
Nc1ccc(N)cc1,Potency,[3],"inactive and inconclusive: 43.6 µM [cytotoxic, partial curve, poor fit] and inconclusive: 16.9 µM [cytotoxic, partial curve]"
same,Potency,[2],"inconclusive: 49 µM [falling, partial curve]"
same,max response,[4],inactive: 13.6% and inactive: -13%
COc1cccc(C=O)c1,Potency,[2],inactive
C=CCOC(C)=O,Potency,[2],inactive
CCCCN(CC)c1c([N+](=O)[O-])cc(C(F)(F)F)cc1[N+](=O)[O-],Potency,[3],"inconclusive: 35.2 µM [cytotoxic, partial curve, poor fit]"
same,Potency,[5],inactive
